Source: patent publication US12060387B2, “Polypeptide-based shuttle agents for improving the transduction efficiency of polypeptide cargos to the cytosol of target eukaryotic cells, uses thereof, methods and kits relating to same” (priority 2015, dated 2024)
Entries after “also recorded” stand apart in the source; their conditions may differ. Not every detail of the peptide structures is certain; ends, links or a residue may be inferred. Where no end group is shown, it is not given here.

Experiments:
[1] = system: CHO cells; experiment: GFP-NLS transduction by His-CM18-PTD4, flow cytometry (Pos cells %); assay type: cell-based, Chinese hamster; conditions: Protocol B, shuttle 35 μM, GFP-NLS 5 μM, 10 seconds
[2] = system: THP-1 cells; experiment: HOXB4-WT transduction, real-time PCR of target gene mRNA (Fold over control); assay type: cell-based, human; conditions: HOXB4-WT 0.3-1.5 μM with shuttle up to 1 μM, 2.5 hours in the presence of serum
Description: Control and treated cells are transferred to separate sterile 1.5-mL tubes and centrifuged for 5 minutes at 300 g. The cell pellets are resuspended in appropriate buffer to lyse the cells. RNAase-free 70% ethanol is then added followed by mixing by pipetting. The lysates are transferred to an RNeasy™ Mini spin column and centrifuged 30 seconds at 13000 RPM. After several washes with appropriate buffers and centrifugation steps, the eluates are collected in sterile 1.5-mL tubes on ice, and the RNA quantity in each tube is then quantified with a spectrophotometer. For DNase treatment, 2 μg of RNA is diluted in 15 μL of RNase-free water. 1.75 μL of 10× DNase buffer and 0.75 μL of DNase is then added, followed by incubation at 37° C. for 15 minutes. For reverse transcriptase treatment, 0.88 μL of EDTA ([…]) is added, followed by incubation at 75° C. for 5 minutes. In a PCR tube, 0.5 μg of DNase-treated RNA is mixed with 4 μL of iScript™ Reverse transcription Supermix (5×) and […] of nuclease-free water. The mix is incubated in a PCR machine with the following program: 5 min at 25° C., 30 min at 42° C. and 5 min at 85° C. Newly synthesized cDNA is transferred in sterile 1.5-mL tubes and diluted in 2 μL of nuclease-free water. 18 μL per well of a qPCR machine (CFX-96™) mix is then added in a PCR plate for analysis.
Briefly, THP-1 cells were plated at 30 000 cells/well one day before transduction. HOXB4-WT recombinant protein (0.3, 0.9, or 1.5 μM; Example 14.1) was co-incubated with different concentrations of His-CM18-PTD4 ([…], 0.8 or 1 μM) and then exposed to THP-1 cells for 2.5 hours in the presence of serum. The cells were subjected to real time-PCR analysis as described in Example 14.2 to measure the mRNA levels of a target gene as a marker for HOXB4 activity, which was then normalized to the target gene mRNA levels detected in the negative control cells (no treatment), to obtain a “Fold over control” value. Total RNA levels (ng/μL) were also measured as a marker for cell viability.
Briefly, THP-1 cells were plated at 30 000 cells/well one day before the first time course experiment. […] The cells were subjected to real time-PCR analysis as described in Example 14.2 to measure mRNA levels of a target gene as a marker for HOXB4 activity, which was then normalized to the target gene mRNA levels detected in the negative control cells (no treatment), to obtain a “Fold over control” value. Total RNA levels (ng/μL) were also measured as a marker for cell viability.
Briefly, THP-1 cells were plated at 30 000 cells/well one day before the first time course experiment. […] The cells were subjected to real time-PCR analysis as described in Example 14.2 to measure mRNA levels of a target gene as a marker for HOXB4 activity, which was then normalized to target gene mRNA levels detected in the negative control cells (no treatment), to obtain a “Fold over control” value. Total RNA levels (ng/μL) were also measured as a marker for cell viability.
Briefly, THP-1 cells were plated at 30 000 cells/well one day before the first time course experiment. […] The cells were subjected to real time-PCR analysis as described in Example 14.2 to measure mRNA levels of a target gene as a marker for HOXB4 activity, which was then normalized to target gene mRNA levels detected in the negative control cells (no treatment), to obtain a “Fold over control” value. […]

[3] = system: rat parietal cortex; experiment: In vivo GFP-NLS delivery in rat parietal cortex; conditions: injection in parietal cortex, shuttle 20 μM + GFP-NLS 20 μM, 5 μL, 10 min, sacrificed 2 h after surgery
[4] = system: primary myoblasts; experiment: Calcein endosomal escape assay, quantification by flow cytometry; assay type: cell-based, Human
Description: In addition to microscopy, flow cytometry allows a more quantitative analysis of the endosomal leakage as the fluorescence intensity signal increases once the calcein is released in the cytoplasm. Calcein fluorescence is optimal at physiological pH (e.g., in the cytosol), as compared to the acidic environment of the endosome.
The cells were allowed to attach by incubating overnight in appropriate growth media, as described in Example 1. The next day, the media in wells was removed and replaced with 50 μL of fresh media without serum containing 62.5 μg/mL (100 μM) of calcein, except for HEK293A (250 μg/mL, 400 μM). At the same time, the shuttle agent(s) to be tested was added at a predetermined concentration. The plate was incubated at 37° C. for 30 minutes. The cells were washed with 1×PBS (37° C.) and fresh media containing 5-10% serum was added. The plate was incubated at 37° C. for 2.5 hours. The cells were washed with 1×PBS and detached using trypsinization.
Untreated calcein-loaded cells were used as a control to distinguish cells having a baseline of fluorescence due to endosomally-trapped calcein from cells having increased fluorescence due to release of calcein from endosomes. Fluorescence signal means (“mean counts”) were analyzed for endosomal escape quantification. In some cases, the “Mean Factor” was calculated, which corresponds to the fold-increase of the mean counts relative to control (untreated calcein-loaded cells). […] The cellular mortality was monitored with the percentage of cells in the total events scanned. When it became lower than the control, it was considered that the number of cellular debris was increasing due to toxicity and the assay was discarded.
To examine the effects of the shuttle agents on primary cells, primary myoblast cells were cultured and tested in the endosomal escape assays as described in Example 2.1. The results of flow cytometry analyses are summarized below in Tables 2.9 and 2.10, and in FIG. 4. In each case, the flow cytometry results were also confirmed by fluorescence microscopy.

[5] = Table 2.10, Myoblasts, peptide 5 μM
[6] = Table 2.10, Myoblasts, peptide 7.5 μM
[7] = Table 2.9 (FIG. 4), Myoblasts, peptide 5 μM
[8] = Table 2.9 (FIG. 4), Myoblasts, peptide 8 μM

Sequence | Mean % cells with GFP signal (±St. Dev.; n = 3) [1] [%] | mRNA transcription of the HOXB4 target gene (in words) [2] | in vivo delivery of GFP-NLS to cell nuclei of rat brain [3] | Mean Factor [4, 5] | Mean counts (n = 3) [4, 5] | Mean Factor [4, 6] | Mean counts (n = 3) [4, 6] | Mean Factor [4, 7] | Mean counts (n = 3) [4, 7] | Mean Factor [4, 8] | Mean counts (n = 3) [4, 8] | escape of endosomally-trapped calcein, dose dependence ([4]; primary myoblasts, Tables 2.9, 2.10) | Mean counts ([4]; primary myoblasts, peptide 5 μM, Table 2.11) | Mean Factor ([4]; primary myoblasts, peptide 5 μM, factor v. no peptide)
HHHHHHKWKLFKKIGAVLKVLTTGYARAAARQARA [His-CM18-PTD4] | 53.7 ± 4.6 | dose-dependent increase in mRNA transcription of the target gene | diffused in cell nuclei of the PCx, of the Corpus Callus (Cc) and of the striatum (Str); also recorded: delivery of the GFP-NLS in the nucleus of cells from the deeper layers of the parietal cortex (injection site) to the corpus callus and the dorsal level of the striatum (putamen) |  |  |  |  |  |  |  |  |  |  | 
KWKLFKKIGAVLKVLTTGYGRKKRRQRRRC [CM18-TAT-Cys] |  |  |  | 2.9 | 91 618 | 3.1 | 95 289 | 2.1 | 79 826 | 2.4 | 91 421 | dose-dependent manner | 88 686 | 2.9
